These are yes or no findings as the source states them, for the method shown. In cells and extracts the contact can be indirect. Some binding calls cover weakened binding; strength is not graded here.
Molecular target: T1, endogenous SPATA6 (mouse testis) (mouse (endogenous in mouse testis)) (UniProt Q3U6K5)
T1 sequence: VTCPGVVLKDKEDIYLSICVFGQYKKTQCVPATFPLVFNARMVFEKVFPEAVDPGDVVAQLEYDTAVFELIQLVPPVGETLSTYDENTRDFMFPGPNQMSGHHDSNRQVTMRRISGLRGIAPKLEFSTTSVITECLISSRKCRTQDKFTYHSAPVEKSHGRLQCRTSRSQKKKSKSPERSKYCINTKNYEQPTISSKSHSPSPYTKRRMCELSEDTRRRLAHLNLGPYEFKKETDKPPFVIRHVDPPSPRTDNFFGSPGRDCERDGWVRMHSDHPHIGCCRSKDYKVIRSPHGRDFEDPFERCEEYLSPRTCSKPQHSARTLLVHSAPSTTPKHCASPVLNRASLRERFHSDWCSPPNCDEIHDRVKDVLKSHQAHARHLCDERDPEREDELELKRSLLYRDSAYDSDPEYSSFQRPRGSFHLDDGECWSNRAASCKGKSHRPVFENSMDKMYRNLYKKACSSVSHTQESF
Assay: co-IP; endogenous proteins in mouse testis lysates; 2 ug anti-SPATA6 antibody, rabbit IgG as negative control; Protein A/G agarose; western blot

B1: endogenous CFAP52 (mouse testis) (protein, UniProt Q5F201-1 1-620)
chain: MEEQVLPELDVAELELQAVIGFNGHVPNGLKCHPDQEHLIYPLGCTVLIQAINTNEQNFLHGHGNNVSCVTISKEGDYIASGQVTFMGFKADIILWDFKKRELIARLSLHKGKIEALAFSPNDLYLVSLGGPDDGSVVVWSIAKRDAICGSPAAGLNVGNATSVVFSRCRDEMFVTAGNGTIRVWELDLPNRKIWPTECQTGQMKRIVLSTGMADDDSFFYLGTTTGDILKMNPKTKLLADTGPVKDKFSLGVSALRCLKMGGLLVGSGAGLLIFCKSPSYKPIKKVQLQGGITSITLRGEGHQFFVGTEESHIYRVNFTDFKETLIATCHFEAVQDIVFPFGTAELFATCAKKDIRVWHTMSKRELLRITVPNMTCHGIDFMRDGKSIISAWDDGKIRAFAPESGRLMYTINSAHRIGVTAIATTSDCKRIISGGGEGEVRVWQVGCQTQKLEEALKEHKSSVSCIRVKKNNEECVTASTDGTCIIWDLVRLRRNQMILANTLFQCVCYHPEEFQIITSGTDRKIAYWEVFDGSVIRELEGSLSGSINGMDITQEGGHFVTGGHDHLVKVWDYNEGEVTHVGVGHSGNIMAMRISPGNQYIVSVSADGAILRWKYPFAS
binding: binds

— publication PMC10735225
